# Reference: the RNAGym collection of RNA variant scans (doi:10.7554/elife.90254)
# Read counts are not given, so values of variants with three or more changes are uncertain.
# B1: LINE1-mini (parent)
# chain: GGCAGAGCUCAACACAGCGUGGCAAAGUGGCUGUGGCUAGACUGCC
# Variants of: B1
# Test: self-cleavage, relative activity (ratio to wild type); higher = more cleavage; in vitro, sequencing; the parent is a self-cleaving ribozyme
row,Variant,self-cleavage
1,A4C C23A G36U G40U C46A,0.05
2,A4C C23A G36U G44A,0.14
3,A4C C23A U34C,0.04
4,A4C C23G A26G U43A C46A,0.18
5,A4C C23G A41U U43C,0.06
6,A4C C23G C42A,0.07
7,A4C C23G U38C C46U,0.06
8,A4C C23U A24U C45A,0.06
9,A4C C23U A25C C46U,0.1
10,A4C C23U C31G C37A,0.12
11,A4C C23U G27U G44C,0.08
12,A4C C23U G29A,0.15
13,A4C C23U G30U G33C G44U C46A,0.08
14,A4C C31A C45A,0.01
15,A4C C31A C45U,0.15
16,A4C C31A U34C U43A,0.03
17,A4C C31A U34G G35U,0.01
18,A4C C31G G33U U34C G36U,0.07
19,A4C C37A C46A,0.05
20,A4C C37G A39C,0.07
21,A4C C37G C46U,0.12
22,A4C C42A C45A C46U,0.15
23,A4C G5A A6C G21U U32A G35A C45A,0.02
24,A4C G5A A6U G19A U28G C46U,0.15

row,Variant,self-cleavage
1,A4C G5A A12C C15A C23U G33U,0.03
2,A4C G5A A12G G29A,0.18
3,A4C G5A A26U A39C,0.24
4,A4C G5A C10A,0
5,A4C G5A C15A G19C G40C C46A,0.19
6,A4C G5A C15U U20A A24U,0.03
7,A4C G5A C18G,0.1
8,A4C G5A C37A,0.17
9,A4C G5A C45U,0.05
10,A4C G5A G17U G36C U43G,0.01
11,A4C G5A U9A C15G G19U,0.06
12,A4C G5A U28A,0.03
13,A4C G5C A6U,0.04
14,A4C G5C A11U G29U,0.02
15,A4C G5C C8G A24C,0.09
16,A4C G5C C8U C45G,0.02
17,A4C G5C C13A C18U A26U U38G,0.04
18,A4C G5C C42U U43G,0.06
19,A4C G5C G7C A25G A26U,0.1
20,A4C G5C G29A G30U G36U A41G,0.19
21,A4C G5C G30A A41G C45G,0.04
22,A4C G5C U20G G30U G35U,0
23,A4C G5C U28G A39U,0
24,A4C G5C U34C G40A A41C,0.04

row,Variant,self-cleavage
1,A4C G5U A6C,0.01
2,A4C G5U A6G U9A G36U,0.09
3,A4C G5U A24U G30C C31G,0.05
4,A4C G5U C8A U43A,0.11
5,A4C G5U C8G C23G C37U,0.32
6,A4C G5U C15A G40C,0.04
7,A4C G5U G7C C42G,0.6
8,A4C G5U G7C G22U G30U U34A C46U,0.01
9,A4C G5U G7U C23A U28C C37G,0.02
10,A4C G5U G29A,0.11
11,A4C G5U G30U G40C U43A,0.06
12,A4C G5U G44A,0.06
13,A4C G5U U9A A14C,0.05
14,A4C G5U U9A A14C G17A G21C G44U,0.02
15,A4C G5U U9A C15U C42U,0.69
16,A4C G7A A14C G19U C23A A25G C37A,0.05
17,A4C G7A A25G,0.13
18,A4C G7A A26G G33U,0.06
19,A4C G7A C13U G33A,0.5
20,A4C G7A C15A U32C,0.15
21,A4C G7A C15G G27U G33U,0.02
22,A4C G7A C23U G27A,0.13
23,A4C G7A C31U U38G,0.08
24,A4C G7A C46G,0.07

row,Variant,self-cleavage
1,A4C G7A G17A G27U G29A C37U C42U U43G,0.3
2,A4C G7A G29A C42U,0.17
3,A4C G7A G30C C31U U32A,0.35
4,A4C G7A U9G A11U A12G G17C,0.01
5,A4C G7A U34A A39G,0.02
6,A4C G7C A14U G17A G21C G27U U43C,0.14
7,A4C G7C A16C G29C G40A,0.02
8,A4C G7C A16U G33U,0.13
9,A4C G7C A24G,1.54
10,A4C G7C A24U A26U C37A,0.19
11,A4C G7C C8A U20C,0.04
12,A4C G7C C8U G30C C42G,0.02
13,A4C G7C C10G A11G G22C C45G,0.01
14,A4C G7C C13A A16U A24C C31G,0.03
15,A4C G7C C37U,2.72
16,A4C G7C G19A,0.78
17,A4C G7C G22A C37U,0.12
18,A4C G7C U9C C13A G36C,0.02
19,A4C G7U A14G C15A A26C G36U C37A,0.72
20,A4C G7U A16C,0.25
21,A4C G7U C8U U9A A14G U28C G30C U32A,0.15
22,A4C G7U C10U,0.04
23,A4C G7U C13A,0.46
24,A4C G17A A24U G30A,0.04

row,Variant,self-cleavage
1,A4C G17A A25G,0.32
2,A4C G17A C18U U20C G36A G40C,0.02
3,A4C G17A G35C G36U C45U,0.01
4,A4C G17A G36U,0.34
5,A4C G17A U20A G21C,0.03
6,A4C G17A U34C,0.1
7,A4C G17C A41U,0.01
8,A4C G17C C37A U38A C42U,0.03
9,A4C G17C U28A,0.04
10,A4C G17C U32G,0.07
11,A4C G17U C37G C46G,0.06
12,A4C G17U G22U,0.05
13,A4C G17U G27U G29C G40C A41U,0.03
14,A4C G17U G30C G36A G40C,0.09
15,A4C G17U G36C,0.1
16,A4C G17U U20A G30C,0.11
17,A4C G19A C31A A41C,0.02
18,A4C G19A G21U G22A,0.05
19,A4C G19A G35A C46A,0.04
20,A4C G19A G35U,0.1
21,A4C G19A U34A A41G,0.05
22,A4C G19C C23G,0.05
23,A4C G19C G22A A25G U28C C37A,0.01
24,A4C G19C U38C A39C,0.03

row,Variant,self-cleavage
1,A4C G19U A24U,0.03
2,A4C G19U G21A A26C,0.12
3,A4C G19U G36C,0.16
4,A4C G21A A24G G40A,0.2
5,A4C G21A A24U U28A,0.4
6,A4C G21A C37U U38G,0.02
7,A4C G21A G22A G36C,0.17
8,A4C G21A G44C C45A,0.05
9,A4C G21A U28G C37G,0.09
10,A4C G21A U32C,0.06
11,A4C G21U C23A G35U G40U,0.06
12,A4C G21U G29C G36C C46U,0.49
13,A4C G21U G30U C45U,0.25
14,A4C G21U U28A A41C C46U,0.03
15,A4C G21U U38G,0.01
16,A4C G22A G29U C46U,0.37
17,A4C G22A G36U C37U,0.02
18,A4C G22U A39C A41C,0.07
19,A4C G22U C45G,0.34
20,A4C G22U G29U,0.13
21,A4C G27A G36A,1.28
22,A4C G27C G33C U38G,0.05
23,A4C G27C G33U C46A,0.02
24,A4C G27U G33U G35U C37A,0.06

row,Variant,self-cleavage
1,A4C G29A G44A,0.04
2,A4C G29C C31A,0.34
3,A4C G29U U32A C42A,0.05
4,A4C G29U U38C C46G,0.3
5,A4C G33A C46G,0.04
6,A4C G33C G35U,0.01
7,A4C G33U C45A,0.03
8,A4C G33U G35C,0.36
9,A4C G33U G36A U38C,0.06
10,A4C G35A A39G,0
11,A4C G35C C42U,0.06
12,A4C G35U A39U,0.06
13,A4C G35U A41U,0.13
14,A4C G35U C42G G44A,0.01
15,A4C G35U G44C,0.05
16,A4C G35U U43C,0.12
17,A4C G36A U38A C46G,0.45
18,A4C G36U C37U,0.05
19,A4C G40A C42U C45U,0.01
20,A4C G40U C42A,0.18
21,A4C G44C C46U,0.05
22,A4C U9A A11C A26C G27A C31G,0.02
23,A4C U9A A16U G30A,0.04
